Laboratory results from the supplement of paper PMC10670038.
Counter-ions that a name gives are not always drawn. ± gives the standard deviation of the averaged measurements. Over roughly 2,000 compounds, “relative cell viability vs DMSO, compound alone” has its median near 1.1; the lowest 2% begin near 0.29. Some of the results follow.

tested on: TE10; assay: relative cell viability vs DMSO, compound alone (fraction); TE10 is an esophageal squamous carcinoma line; higher = less cytotoxic; conditions: 2 µM; 48 h
Procedure: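 TE10 ESCC cells (1,000/well, 384-well plates) were treated with Selleck bioactive library compounds at 2 uM alone for 48 h. Viability was read by CellTiter-Glo and expressed relative to DMSO wells. Two technical replicates (A, B).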

First: Nc1nc(N)nc(NC2CC2)n1 [Cyromazine]
Second: Cc1c(Cl)c(OCC(=O)N2CCN(C)CC2)nc2sc(C(=O)NC3CC3)c(N)c12
The relative cell viability of the first is higher: 1.108 ± 0.0048 for the first, 1.04 ± 0.019 for the second.

`C=C[C@H]1CN2CC[C@H]1C[C@H]2[C@H](O)c1ccnc2ccccc12` [Cinchonidine] and `C[C@@]12N[C@@H](Cc3ccccc31)c1ccccc12` [(-)-MK 801 Maleate] are within error of each other in relative cell viability: 1.06 ± 0.018 for the first, 1.01 ± 0.098 for the second.

First: Cc1cccc(C(C)c2c[nH]cn2)c1C (configuration not stated) [Medetomidine HCl]
Second: Cc1cccc([C@H](C)c2c[nH]cn2)c1C [Dexmedetomidine]
The relative cell viability of the first is higher: 1.085 ± 0.0051 for the first, 0.8337 ± 0.0044 for the second.

`C/C(=C\c1csc(C)n1)[C@@H]1C[C@@H]2O[C@]2(C)CCC[C@H](C)[C@H](O)[C@@H](C)C(=O)C(C)(C)[C@@H](O)CC(=O)O1` [Epothilone B (EPO906, Patupilone)] and `CC(=O)OC12COC1CC(O)C1(C)C(=O)C(O)C3=C(C)C(O)CC(O)(C(OC(=O)c4ccccc4)C21)C3(C)C` (configuration not stated) [10-Deacetylbaccatin-III] are within error of each other in relative cell viability: 0.857 ± 0.023 for the first, 0.817 ± 0.079 for the second.

Compared with `C=CC[C@]1(O)CC[C@H]2[C@@H]3CCC4=CC(=O)CCC4=C3C=C[C@@]21C` [Altrenogest], `C#C[C@]1(O)C=C[C@H]2[C@@H]3CCC4=CC(=O)CC[C@@H]4[C@H]3CC[C@@]21CC` [Gestodene] is lower in relative cell viability: 1.115 ± 0.0019 for the first, 0.9 ± 0.016 for the second.

`O=c1[nH]c2ccccc2n1CCCN1CCC(n2c(=O)[nH]c3cc(Cl)ccc32)CC1` [Domperidone] and `Cc1cc(C(=O)CN2CCCC2)c(C)n1-c1ccc(F)cc1` are within error of each other in relative cell viability: 1.12 ± 0.041 for the first, 1.04 ± 0.12 for the second.

Going from `O=S(=O)(CC1CS1)c1ccc(Oc2ccccc2)cc1` (configuration not stated) to `O=S(=O)(F)Cc1ccccc1`, the relative cell viability falls from 1.14 ± 0.013 to 0.978 ± 0.021.

Compared with `O=P1(NCCCl)OCCCN1CCCl` (configuration not stated) [Ifosfamide], `CC(C)N(CCNC(=O)CN1CCCC1=O)C(C)C` [Pramiracetam] is lower in relative cell viability: 1.28 ± 0.077 for the first, 1 ± 0.054 for the second.

Compared with `NC(=O)CN1CCCC1=O` [Piracetam], `COC(=O)C1=CCCN(C)C1` [Arecoline] is lower in relative cell viability: 1.09 ± 0.018 for the first, 0.833 ± 0.1 for the second.

`O=C(O[C@H]1C[N+]2(CCCOc3ccccc3)CCC1CC2)C(O)(c1cccs1)c1cccs1` [Aclidinium Bromide] and `C[N+]1(C)[C@@H]2C[C@@H](OC(=O)[C@H](CO)c3ccccc3)C[C@H]1[C@@H]1O[C@@H]12` [Methscopolamine] are within error of each other in relative cell viability: 0.9708 ± 0.0095 for the first, 1 ± 0.027 for the second.

Going from `Cc1cc(SCc2sc(-c3ccc(C(F)(F)F)c(F)c3)nc2C)ccc1OCC(=O)O` to `C[C@](O)(COc1ccc(C#N)cc1)C(=O)Nc1ccc(C#N)c(C(F)(F)F)c1`, the relative cell viability rises from 1.128 ± 0.0016 to 1.2 ± 0.038.

`CC(C)(C)[C@]1(O)CC2OC(=O)CC23C(=O)OC2OC(=O)[C@H](O)C231` (some centres not stated) [Bilobalide] and `C[C@@H]1CC[C@H]2[C@@H](C)C(=O)O[C@@H]3O[C@@]4(C)CC[C@@H]1[C@]32OO4` [Artemisinin] are within error of each other in relative cell viability: 1.11 ± 0.022 for the first, 0.94 ± 0.19 for the second.

Going from `O=C(Oc1ccc([N+](=O)[O-])cc1)N1CCC(C(O)(c2ccc3c(c2)OCO3)c2ccc3c(c2)OCO3)CC1` to `CC(=O)Nc1ccc(OC[C@](C)(O)C(=O)Nc2ccc([N+](=O)[O-])c(C(F)(F)F)c2)cc1` [Andarine], the relative cell viability rises from 1.04 ± 0.032 to 1.187 ± 0.01.

`O=C1CCC[C@@H]2[C@H]3CCCN4CCC[C@@H](CN12)[C@@H]34` [(+)-Matrine] and `C[C@]12CC[C@H](O)C[C@@H]1CC[C@@H]1[C@@H]2CC[C@]2(C)C(=O)CC[C@@H]12` [Epiandrosterone] are within error of each other in relative cell viability: 1.1 ± 0.059 for the first, 1.09 ± 0.031 for the second.

`Cc1cccc(C)c1NC1=NCCCS1` [Xylazine HCl] and `Cc1cccc([C@H](C)c2c[nH]cn2)c1C` [Dexmedetomidine HCl (Precedex)] are within error of each other in relative cell viability: 1.11 ± 0.016 for the first, 1.08 ± 0.027 for the second.

`CCC1(c2cccc(O)c2)CCCCN(C)C1` (configuration not stated) [Meptazinol HCl] and `NCCc1c[nH]c2ccc(O)cc12` [Serotonin HCl] are within error of each other in relative cell viability: 0.904 ± 0.12 for the first, 0.996 ± 0.16 for the second.

Going from `COc1ccc2c(c1)/C(=C/c1cnc[nH]1)C(=O)N2` to `CCC1(c2ccc(N)cc2)CCC(=O)NC1=O` (configuration not stated) [Aminoglutethimide], the relative cell viability falls from 1.16 ± 0.054 to 0.887 ± 0.062.

First: COc1ccc(C[C@H]2NC[C@H](O)[C@H]2OC(C)=O)cc1 [Anisomycin]
Second: CCN(C)C(=O)Oc1cccc([C@H](C)N(C)C)c1 [Rivastigmine Tartrate]
The relative cell viability of the first is lower: 0.328 ± 0.025 for the first, 1.08 ± 0.011 for the second.

Going from `CCC(COC(=O)c1cc(OC)c(OC)c(OC)c1)(c1ccccc1)N(C)C` (configuration not stated) [Trimebutine] to `CN(C)C(=O)Oc1cc(OC(=O)N(C)C)cc(C(O)CNC(C)(C)C)c1` (configuration not stated) [Bambuterol HCl], the relative cell viability falls from 1.11 ± 0.052 to 0.945 ± 0.023.

Compared with `C/C=C(\C)C(=O)N[C@@H](c1ccccc1)[C@@H](O)C(=O)O[C@H]1C[C@@]2(O)[C@@H](OC(=O)c3ccccc3)[C@@H]3[C@]4(OC(C)=O)CO[C@@H]4C[C@H](O)[C@@]3(C)C(=O)[C@H](OC(C)=O)C(=C1C)C2(C)C` [Cephalomannine], `Cc1c(N)nc(C(CC(N)=O)NCC(N)C(N)=O)nc1C(=O)NC(C(=O)NC(C)C(O)C(C)C(=O)NC(C(=O)NCCc1nc(-c2nc(C(=O)NCCC[S+](C)C)cs2)cs1)C(C)O)C(O[C@@H]1O[C@@H](CO)[C@@H](O)[C@H](O)[C@@H]1O[C@H]1O[C@H](CO)[C@@H](O)[C@H](OC(N)=O)[C@@H]1O)c1cnc[nH]1` (some centres not stated) [Bleomycin Sulfate] is higher in relative cell viability: 0.52 ± 0.0058 for the first, 0.856 ± 0.038 for the second.

First: NCC(=O)O.[C-]#[O+].[C-]#[O+].[C-]#[O+].[Cl][Ru]
Second: NCC(O)c1ccc(O)cc1 (racemic) [(+,-)-Octopamine HCl]
The relative cell viability of the first is lower: 0.858 ± 0.024 for the first, 0.99 ± 0.034 for the second.

First: C[C@]12N[C@H](Cc3ccccc31)c1ccccc12 [MK-801 (Dizocilpine)]
Second: CNCC(=O)c1ccc(O)c(O)c1 [Adrenalone HCl]
The relative cell viability of the first is lower: 1.04 ± 0.011 for the first, 1.14 ± 0.04 for the second.

First: C[C@]12CC[C@H]3[C@@H](CC[C@@]45O[C@@H]4C(O)=C(C#N)C[C@]35C)[C@@H]1CC[C@@H]2O [Trilostane]
Second: C[C@@H]1O[C@@H](O[C@H]2C[C@@H](O)[C@]3(CO)[C@H]4[C@H](O)C[C@]5(C)[C@@H](C6=CC(=O)OC6)CC[C@]5(O)[C@@H]4CC[C@]3(O)C2)[C@H](O)[C@H](O)[C@H]1O [Ouabain]
The relative cell viability of the first is higher: 1.08 ± 0.055 for the first, 0.518 ± 0.013 for the second.

In the case of `CN1C2CC(O)CC1C1OC12` (configuration not stated) [Scopine], the relative cell viability is reported as 0.808 ± 0.14.
